Structures can show the parent of a compound that is named as a salt. Viability of KB3-1 and Nalm-6 cells after 48 h of drug alone (CellTiter-Glo), 11 doses over about 4.5 log units. % of DMSO wells, lower = more cell loss; AC50 from the fitted curve, lower = more potent. No active / inactive call. Nalm-6 was screened in two runs. AC50 is listed only for well-fitted inhibitory curves. KB3-1 is a HeLa-derived carcinoma line, Nalm-6 a B-cell precursor leukaemia line.
Columns and labels:
KB3-1 = test: viability (% of DMSO control); higher = more viable cells
Experimental: (§1)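 Eleven-dose screen of the NCATS MIPE 3 library on cells without co-treatment; CellTiter-Glo after 48 h, as % of DMSO wells.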

Nalm-6 [1] = test: as above
Experimental: as §1

Nalm-6 [2] = test: log AC50 of viability decrease (48 h) (log10 M); higher = less potent
Experimental: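 Eleven-dose screen of the NCATS MIPE 3 library on cells without co-treatment; CellTiter-Glo after 48 h. AC50 from the curve fit; only inhibitory curves of the better fit classes are listed.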

SMILES | viability (KB3-1; 0.00078 µM) [%] | viability (KB3-1; 0.00234 µM) [%] | viability (KB3-1; 0.00702 µM) [%] | viability (KB3-1; 0.0211 µM) [%] | viability (KB3-1; 0.0632 µM) [%] | viability (KB3-1; 0.19 µM) [%] | viability (KB3-1; 0.569 µM) [%] | viability (KB3-1; 1.71 µM) [%] | viability (KB3-1; 5.12 µM) [%] | viability (KB3-1; 15.4 µM) [%] | viability (KB3-1; 46.1 µM) [%] | viability (Nalm-6 [1]; run: 1, 0.00078 µM) [%] | viability (Nalm-6 [1]; run: 1, 0.00234 µM) [%] | viability (Nalm-6 [1]; run: 1, 0.00702 µM) [%] | viability (Nalm-6 [1]; run: 1, 0.0211 µM) [%] | viability (Nalm-6 [1]; run: 1, 0.0632 µM) [%] | viability (Nalm-6 [1]; run: 1, 0.19 µM) [%] | viability (Nalm-6 [1]; run: 1, 0.569 µM) [%] | viability (Nalm-6 [1]; run: 1, 1.71 µM) [%] | viability (Nalm-6 [1]; run: 1, 5.12 µM) [%] | viability (Nalm-6 [1]; run: 1, 15.4 µM) [%] | viability (Nalm-6 [1]; run: 1, 46.1 µM) [%] | viability (Nalm-6 [1]; run: 2, 0.00078 µM) [%] | viability (Nalm-6 [1]; run: 2, 0.00234 µM) [%] | viability (Nalm-6 [1]; run: 2, 0.00702 µM) [%] | viability (Nalm-6 [1]; run: 2, 0.0211 µM) [%] | viability (Nalm-6 [1]; run: 2, 0.0632 µM) [%] | viability (Nalm-6 [1]; run: 2, 0.19 µM) [%] | viability (Nalm-6 [1]; run: 2, 0.569 µM) [%] | viability (Nalm-6 [1]; run: 2, 1.71 µM) [%] | viability (Nalm-6 [1]; run: 2, 5.12 µM) [%] | viability (Nalm-6 [1]; run: 2, 15.4 µM) [%] | viability (Nalm-6 [1]; run: 2, 46.1 µM) [%] | log AC50 of viability decrease (Nalm-6 [2]; run: 1) | log AC50 of viability decrease (Nalm-6 [2]; run: 2)
O=C(Nc1cccc(Cl)c1)Nc1ncc(CCNc2ncnc3ccsc23)s1 [SNS-314] | 99 | 99.3 | 93.7 | 89.9 | 88.7 | 87.2 | 89.7 | 88.5 | 92 | 82 | 13.3 | 65.1 | 59 | 63.7 | 63.2 | 65.8 | 55.9 | 59.6 | 54.4 | 50.8 | 45.2 | 1.77 | 92 | 83.9 | 78.2 | 79.5 | 78.7 | 66.1 | 66.9 | 53.3 | 62.1 | 57 | 1.89 | -4.68 | -4.53
COc1cccc(OC)c1-c1cc(C(=O)NC2(C(=O)O)C3CC4CC(C3)CC2C4)nn1-c1ccnc2cc(Cl)ccc12 (configuration not stated) [Meclinertant] | 105 | 104 | 103 | 107 | 101 | 101 | 101 | 98.8 | 100 | 88.8 | 75.5 | 116 | 122 | 124 | 121 | 133 | 121 | 114 | 116 | 115 | 95.9 | 33.7 | 108 | 108 | 103 | 108 | 101 | 103 | 99.6 | 100 | 93.1 | 85.3 | 21.8 | -4.68 | -4.53
CCC1(O)CC2CN(CCC3=C([NH]C4=CC=CC=C34)[C@@](C2)(C(=O)OC)C5=C(OC)C=C6N(C=O)[C@H]7[C@@](O)([C@H](OC(C)=O)[C@]8(CC)\C=C/CN9CC[C@]7([C@H]89)C6=C5)C(=O)OC)C1 (some centres not stated) [Vincristine sulfate] | – | – | – | – | – | – | – | – | – | – | – | 43.6 | 19.3 | 21 | 16.6 | 17.2 | 18.9 | 16 | 15.2 | 9.77 | 8.85 | 3.23 | 75.2 | 22.3 | 14.9 | 12.1 | 13.4 | 9.82 | 8.99 | 6.78 | 5.85 | 5.87 | 2.29 | – | -8.78
CC(C)OC(=O)/C1=C/N(CC(C)(C)C2=C1[NH]C3=CC=CC=C23)C(=O)C4=CC=C(F)C(=C4)F [Turofexorate isopropyl] | – | – | – | – | – | – | – | – | – | – | – | 113 | 123 | 129 | 135 | 122 | 125 | 118 | 118 | 113 | 114 | 91.4 | 108 | 107 | 106 | 105 | 102 | 102 | 104 | 55.7 | 39.5 | 0.0065 | -0.782 | – | -5.53
C/C(O)=C(\C#N)C(=O)Nc1ccc(C(F)(F)F)cc1 [Teriflunomide] | 98.8 | 102 | 97.5 | 101 | 100 | 101 | 96.7 | 93 | 94.9 | 92.6 | 17.8 | 95.2 | 99.8 | 99.8 | 104 | 103 | 105 | 98.4 | 89.8 | 61.7 | 44.4 | 6.17 | 96.1 | 99.5 | 109 | 98 | 102 | 94.6 | 101 | 93.2 | 79.4 | 53.6 | 20.8 | -4.83 | -4.78
CCN(CC)CCCCNc1nc2cc(Cl)c(Cl)cc2nc1-c1ccc(-c2cccs2)s1 | 105 | 109 | 106 | 102 | 105 | 104 | 108 | 101 | 105 | 97.4 | -0.125 | 107 | 121 | 133 | 131 | 117 | 117 | 129 | 108 | 102 | 49.6 | 0.444 | 103 | 107 | 112 | 114 | 113 | 106 | 103 | 109 | 101 | 73.1 | 0.863 | -4.83 | -4.73
COc1cc2c(N3CCN(C(=O)Nc4ccc(OC(C)C)cc4)CC3)ncnc2cc1OCCCN1CCCCC1 [Tandutinib] | 97.3 | 99.9 | 98.6 | 97.5 | 97.5 | 101 | 100 | 100 | 97.6 | 95.5 | 13.7 | 96.1 | 106 | 107 | 105 | 112 | 110 | 111 | 102 | 99.7 | 71.9 | 3.18 | 104 | 104 | 109 | 109 | 105 | 111 | 110 | 104 | 104 | 80.9 | 3.31 | -4.73 | -4.68
COc1cc(C)c(Sc2cnc(NC(=O)c3ccc(CNC(C)C(C)(C)C)cc3)s2)cc1C(=O)N1CCN(C(C)=O)CC1 (configuration not stated) | 100 | 101 | 99.2 | 101 | 99.5 | 98.2 | 29 | 88.2 | 25.3 | 20 | 47.1 | 101 | 110 | 105 | 99.9 | 108 | 110 | 103 | 89.5 | 50.4 | 45.2 | 1.53 | 108 | 110 | 107 | 109 | 96.3 | 109 | 104 | 90.6 | 64.3 | 52.7 | 2.53 | -4.93 | -4.83
FC1=C(C=C(C/C2=N/NC(=O)C3=C2C=CC=C3)C=C1)C(=O)N4CCN(CC4)C(=O)C5CC5 [Olaparib] | 108 | 105 | 112 | 110 | 109 | 110 | 109 | 111 | 102 | 104 | 81.4 | 107 | 109 | 116 | 111 | 115 | 112 | 110 | 107 | 102 | 95.9 | 35.8 | 97.8 | 101 | 105 | 105 | 103 | 96.7 | 99.1 | 93.2 | 90.8 | 56.4 | 28.8 | -4.63 | -4.83
NC(=O)c1ccc(-c2nc(-c3ccc4c(c3)OCCO4)c(-c3ccccn3)[nH]2)cc1 [D-4476] | 100 | 88.9 | 96.5 | 101 | 101 | 100 | 105 | 107 | 109 | 108 | 84.7 | 103 | 98.5 | 95.9 | 102 | 108 | 112 | 123 | 114 | 111 | 112 | 73.8 | 120 | 103 | 115 | 117 | 115 | 114 | 118 | 118 | 114 | 104 | 80.9 | – | -4.68
c1ccc(-c2nn3c(c2-c2ccnc4cc(OCCN5CCOCC5)ccc24)CCC3)nc1 | 105 | 107 | 104 | 110 | 104 | 112 | 111 | 111 | 114 | 105 | 97.3 | 96.4 | 105 | 103 | 101 | 109 | 110 | 124 | 126 | 136 | 117 | 27.6 | 102 | 108 | 104 | 104 | 113 | 111 | 114 | 112 | 119 | 95.9 | 8.85 | – | -4.58
COc1cccc2c1C(=O)c1c(O)c3c(c(O)c1C2=O)C[C@@](O)(C(=O)CO)C[C@@H]3O[C@H]1C[C@H](N)[C@H](O)[C@H](C)O1 [Doxorubicin] | – | – | – | – | – | – | – | – | – | – | – | 101 | 100 | 67.4 | 46.4 | 9.31 | 7.02 | 5.01 | 4.81 | 5.79 | 12.4 | 33.2 | 108 | 103 | 84.2 | 36.9 | 8.3 | 5.76 | 5.46 | 5.58 | 9.75 | 21.2 | 43.6 | -7.93 | -7.93
CNC(=O)C1=CC=C(C)C(=C1)N2C(=C/C(=C(/Br)C2=O)OCC3=C(F)C=C(F)C=C3)\C | 96.3 | 98.1 | 98.1 | 101 | 101 | 102 | 100 | 99 | 96.2 | 93.3 | 69.4 | 110 | 111 | 103 | 120 | 114 | 107 | 113 | 99.7 | 82.9 | 83.8 | 54.8 | 107 | 106 | 109 | 106 | 110 | 110 | 109 | 107 | 102 | 99.9 | 67.3 | -4.78 | –
Cc1[nH]c(/C=C2\C(=O)Nc3ccc(S(=O)(=O)Cc4c(Cl)cccc4Cl)cc32)c(C)c1C(=O)C1CCCN1CN1CCCC1 (configuration not stated) | 104 | 105 | 105 | 103 | 104 | 102 | 102 | 101 | 98.3 | 101 | -1.18 | 117 | 127 | 129 | 123 | 115 | 114 | 120 | 111 | 102 | 79.5 | -1.65 | 109 | 108 | 106 | 109 | 111 | 106 | 111 | 92.4 | 91.1 | 88 | -0.684 | -4.68 | -4.63

— the supplement of paper PMC4996465
